Experimental data reported in the RNAGym collection of RNA variant scans (doi:10.7554/elife.90254).
Read counts are not given, so values of variants with three or more changes are uncertain.

B1: OR4K15 (parent)
chain: GUUAACGGUCAUAGGCCAUGGAAACUAGGAGCACCAUUUCGCUGCCAGUGAAGAAAUGAACAAAGAAAAUCUGGGCCAGGCAGGCAUCAAAAGAAAUAGUCUUGCGCUCAACCAGAAAGUCUGUAAUCAUUUUAAGGGUA

Variants of: B1
Assay: self-cleavage, relative activity (ratio to wild type); higher = more cleavage; in vitro, sequencing; the parent is a self-cleaving ribozyme

Variant | self-cleavage
U12C A13G U39C A51G A67G A96G U131C | 0.45
U12C U43C U100C C128U | 2.04
A13G A52G A140G | 1.11
U12C U70A G75C A92G | 0.07
U12C U26C A27G A33U A129G | 0.87
G14U A82G A98G U103C | 0.73
U12C A56G A67G U97C A98G A110C | 0.14
U12C A117G A135U | 0.81
U12C A54G A63G | 0.47
A13U A33G U37C | 1.66
U12C A30G U100C A118G | 1.58
A13G U57C A114G U130C | 0.14
A13G A27G A30G A92G U102A A134G | 0.89
A11U U26C U108C | 0.01
A11U U37C A118U | 0.79
A11U U12C A23U A59G A86G A125U A140G | 0.55
A11U U43C A91G A135G | 0.27
U12A A13G A54G A95C A117G | 0.94
A11U G58U A67G | 0.69
U12A U127C G136A | 0.98
A13U A56C A64G A114G | 0.36

Variant | self-cleavage
U12C A18G A23G A30G U43G | 0.87
A13G A30U A95G A129G | 2.26
A13G A91G A135U | 0.34
U12C U43C A118G U131C | 0.39
A13C A23G U132C | 1.69
U12C U43C A67G A135G U139A | 1.95
U12C A24G G136U | 1.67
A11U U39C U49A A56G | 0.89
G14A A51U A78U A95G U120C | 0.29
A13C A47U U49C A86G U100C A118G | 1.68
G14A A95G A111G | 0.01
A13G U37C U108C U124C | 0.02
A13G U43A A62G U102A C112U U132A | 0.07
A11U U43C A60U U103C | 0.83
A11U U39C A90G A92G A95G U127G | 1.84
A11U G80A A90G U103C G136A | 0.02
A11U A68G A78G A114G | 0.03
U12C U57C A67G C107U A116U U130C | 0.01
U12A A18G A27G U38G U132A | 0.69
U12C A60G A89G | 0.83
U12C A33U A54G A60G A82U | 0.14

Variant | self-cleavage
U12C A82G U131C | 0.46
G14C A47G A68G A134G | 1.27
U12G A66G A92G U103C | 0.7
A13G A63G A90G A94U | 0.69
A13G U19C A59U A66G U122C | 0.8
A13G G20A A68G U87C U100C A110G | 0.39
G14A U19C A69G A89G U108C | 0.01
G14A A22G A59U | 1.49
A13U U72C U108C | 0.05
A11U A66U A78G | 0.23
A13G U38A A47G U100G U130C | 1.54
A11U A78G A89G U127A | 0.31
A13U U43A A47G A69U U103C | 0.2
A13G A33C A96G | 0.32
A13C A33G A52G A82C A96G | 0.23
A13G C46U A52C A55G A90G U100C | 1.6
U12A C85U A89G | 1.35
A13U U19A A111G | 0.09
A13U A55G U132C | 0.82
A13G A22G A63G A86G | 0.85
A13G A54G U108C | 0.13

Variant | self-cleavage
U12C A23G A116G | 1.32
A13G A66G A86G A89G U108A | 0.02
U12C A51G A63G A129G | 1.04
A13U U57A U131C | 1.76
U12C A68G C77A A90G A95G A126G A135G | 1.42
U12G A64G A89G | 0.93
U12C U39C A125G | 0.69
A13G A111G U122C | 0.05
U12C A66G U70C | 0.99
A13G A56G A117G | 0.97
G14C C35U A54U A140G | 1.01
G14C A56G A118G | 0.98
G14A U39C U43G U97G U131A | 1.58
U12A A64U A116G | 0.59
A13G U49G A60G U122C | 0.46
U12C A22U U132C | 0.64
U12A C16U U19C G21A C35G A117G | 0.77
U12C A23G A24G | 0.8
A13U A78U G104A | 0.01
U12C G48C A95G | 1.35
U12C A56G U57C U100A | 0.61
